Measurements as given in the supplement of paper PMC3334620.
The full ranking holds about 33,000 sequences; the median of “E-score (-0.5 to 0.5)” is about -0.043, and the highest 2% start at about 0.37. This is one part of the list.

molecular target: T1, Upc2 (UniProt Q12151); test: PBM E-score (8-mer binding enrichment) (E-score (-0.5 to 0.5)); higher = stronger / more preferred TF binding; most listed sequences are background and not binding sites; details: protein concentration: 200 nM; construct: GST-full length
T1 sequence: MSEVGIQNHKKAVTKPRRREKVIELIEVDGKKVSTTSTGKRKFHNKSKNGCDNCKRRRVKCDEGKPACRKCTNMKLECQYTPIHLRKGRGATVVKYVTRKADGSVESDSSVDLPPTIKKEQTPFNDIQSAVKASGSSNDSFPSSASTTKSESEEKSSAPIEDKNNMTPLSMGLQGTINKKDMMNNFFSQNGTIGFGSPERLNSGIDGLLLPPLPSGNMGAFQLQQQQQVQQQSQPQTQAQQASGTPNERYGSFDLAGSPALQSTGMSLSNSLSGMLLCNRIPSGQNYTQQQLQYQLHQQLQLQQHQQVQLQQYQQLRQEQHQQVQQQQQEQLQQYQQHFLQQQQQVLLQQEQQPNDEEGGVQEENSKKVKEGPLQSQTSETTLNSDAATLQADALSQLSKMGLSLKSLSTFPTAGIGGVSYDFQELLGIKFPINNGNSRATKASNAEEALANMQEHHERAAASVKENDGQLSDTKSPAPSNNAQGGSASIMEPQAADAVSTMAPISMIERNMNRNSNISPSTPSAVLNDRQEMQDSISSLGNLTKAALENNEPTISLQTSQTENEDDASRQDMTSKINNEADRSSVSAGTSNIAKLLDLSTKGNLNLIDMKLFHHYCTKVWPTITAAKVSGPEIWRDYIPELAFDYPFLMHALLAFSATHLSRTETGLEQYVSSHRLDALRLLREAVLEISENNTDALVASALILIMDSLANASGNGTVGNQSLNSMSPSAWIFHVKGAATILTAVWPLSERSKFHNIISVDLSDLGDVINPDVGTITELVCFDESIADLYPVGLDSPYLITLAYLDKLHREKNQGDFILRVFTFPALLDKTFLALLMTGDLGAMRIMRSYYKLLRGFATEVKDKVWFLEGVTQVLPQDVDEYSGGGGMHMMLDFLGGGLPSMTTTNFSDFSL
Method in brief: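 Detection of bound protein used fluorescent anti-GST, with scans normalised by masliner. The proteins were GST-tagged yeast transcription factors applied at about 100-200 nM to universal all-10-mer Agilent arrays made double-stranded by primer extension. Each ungapped eight-base word, pooled with its reverse complement, was scored with an E-score from the Universal PBM Analysis Suite.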

Sequence	PBM E-score
ACACGAGG	0.248
CCGAACGC	0.0534
CTGCTAAA	-0.0352
GCGGGACA	-0.109
AGTTACAT	-0.223
CGTGGCGC	-0.0595
AGCGTCTG	-0.0504
ACCCTTAG	-0.238
TATTCAGA	-0.00637
ATCGTTCC	0.43
AAACGTAA	0.226
ATATCACA	-0.0617
AGATGGTA	0.00604
CAAGGGAC	-0.365
CACGGGTA	-0.0321
ACCGTGCT	-0.178
GGACCGCC	-0.147
CGCTCGAC	-0.0799
TCGGATCA	0.112
CTCCTGAC	-0.332
CAGGTATG	-0.0943
AGTATTGG	-0.176
CAGTAAGG	-0.179
CTTAGCGC	0.126
AAACGAAT	0.451

Sequence	PBM E-score
AGAACGAC	0.391
AAAGTCAC	0.0807
CCACATAG	-0.134
TCACTACA	-0.0635
CCCCCTAA	-0.13
AAAAAGCA	-0.0159
GAGTTCAC	0.0452
TACCAATA	-0.0536
AAAGGATG	-0.00713
CAGCCAAG	-0.219
AACTGGGG	-0.272
ATGTAACG	0.144
AAAGACAC	0.0363
ATACTACC	0.00202
CCCTTTCG	-0.0783
AACTTCAC	0.157
AGGCTAGC	-0.192
AGTTCTAG	-0.155
AGTCATAG	-0.196
TAAGAGAA	0.138
TGAACACA	0.0855
GATGGCTA	-0.0762
CGAACAAC	0.192
ATAATACA	0.087
CGTCAGCC	0.165

Sequence	PBM E-score
GATGAACC	-0.0786
ATAGTCCG	0.127
GATGGGCC	-0.0304
ACCTAGGG	-0.13
CTTTCGAA	-0.0138
ATAGGTAC	0.124
AGACCATG	-0.232
GTTAGAGA	-0.129
AATTCCCA	-0.0677
CTCTACTC	-0.154
AAACTAGA	-0.0238
AGAACTTA	-0.0298
ACCGGTAA	0.0421
GTGTCGTA	0.44
GAGGAGGA	-0.0195
CCCTGCCG	-0.261
AATTATTG	-0.0699
CTCTCAGA	-0.282
ACTCGTGG	0.0117
CAGATAAC	-0.154
ACCGTTAG	-0.062
AGCCAATG	-0.164
AATATGAC	-0.102
CCTATTAA	-0.157
AGAGAGGA	-0.196

Sequence	PBM E-score
ATTTCTGC	0.211
CTTAAGCA	-0.14
GCCGTACA	0.4
CCCGCATA	0.169
AAAGAGTT	-0.235
AAACAACC	0.0306
GTTAGAAA	-0.0914
CCGCCAAC	-0.116
GTGAGAAA	-0.0421
CCACGGGG	-0.232
AGACTGAA	-0.0875
CCCGTTCG	0.253
ACCTCCAT	-0.0728
AACTTGGT	0.117
AAAGTCCG	-0.0381
ACGCCTAG	0.0201
AAACGGTT	0.325
CGGGTCAC	0.0662
CGTATCAG	0.381
AGAATCGA	-0.0184
CACGAGAC	0.0139
CCGAACTA	-0.0232
ATTCAGAG	-0.152
GTCGGTCA	0.213
CGGACAGA	0.161

Sequence	PBM E-score
GTGCGTCA	-0.262
CAACTAGC	0.103
CTTTTAAC	0.2
GTGCCGTA	0.344
GGTACGCA	0.252
TAGATTCA	-0.00942
CCCGGACA	-0.0292
ATCCAGCC	-0.128
CTTATGTA	-0.00714
TAACGTAA	0.207
ACACGCGA	0.156
ATAAGCAA	-0.126
TGAGTACA	-0.135
AAGGCACT	-0.145
TGAGACAA	-0.156
ATGCGGTG	-0.185
CCTTGAAA	-0.0231
GAACCATA	-0.072
CTCATTAA	-0.178
TCATTGGA	-0.129
CCCTATGA	-0.307
CCATTGCG	-0.0582
CCGGTAGC	-0.307
CTCAGTTA	-0.16
CGAAGAAC	0.144

Sequence	PBM E-score
AATTAGTA	-0.0765
AGTCTCTA	-0.0101
GTGCGAGA	0.107
CGGTCGAG	0.111
CTCTCTCC	-0.132
TGATGAAA	-0.0735
GCAGGAAA	-0.125
ACACCTCG	0.131
GAGGACGA	0.0212
ATTGCACG	0.132
CTCCCTGC	-0.256
GCTTTATA	-0.0158
GCAATAAC	-0.123
GACCGACA	0.1
ATAGTATA	0.212
AATAGGAC	-0.127
AATCGTAC	0.43
CAGTCAGC	-0.0894
CTTCAAAA	-0.24
AAAATGGA	-0.017
ACTCAATA	-0.0312
GAATCGAA	-0.0172
CATGTACG	0.409
ACGTGACA	0.249
ACTGGACA	-0.0544

Sequence	PBM E-score
ACTACTCT	-0.042
GACCGAGC	0.178
ACACCGAA	0.0562
AGCGTCTA	-0.243
GTCCGTCA	-0.255
AGAAACCT	-0.174
CAGCGTTC	0.00239
AATGTATA	0.185
GCATGGAA	-0.142
AGGGGTCG	-0.0675
CTGCTGAA	-0.087
CTGTCGTC	0.00126
GACCAGCC	-0.286
AGCAGCAC	-0.113
TACAACTA	-0.102
ATGAAACA	0.102
AGAGTAAG	-0.226
CCGTGCAA	-0.0413
GGATGACC	-0.188
AACACTAT	0.139
AGTGTCAC	-0.217
CTAGATTC	-0.153
